Source: the supplement of paper PMC4967469
Lines with a small IC50 respond at low doses; a limit (>, <) means that the fit lies beyond the doses tested. AUC sums up the same curve from the lowest dose to the 256-fold higher top dose; values near 1 show little effect. For part of these data: An inferred top dose is not printed in the source and was worked back from the curve model.

Assays:
Assay in all cases: Viability of human cancer cell lines after 72 h of drug (GDSC screen)
Temozolomide = compound: Cn1nnc2c(C(N)=O)ncn2c1=O [Temozolomide]; conditions: top dose 30 µM
Procedure: (§1)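 Human cancer cell lines in 384-well plates, medium with 10% serum, drug for 72 h over a 256-fold dose range (nine 2-fold or five 4-fold steps up to the top dose). Adherent lines were fixed and stained with the nucleic acid dye Syto60, suspension lines read with resazurin; signal relative to control wells, capped at 0 and 100%. One two-parameter sigmoid per drug and line, fitted in a mixed model over all curves with the slope shared within a line.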

ZG-10 = compound: CN(C)C/C=C/C(=O)Nc1ccc(C(=O)Nc2cccc(Nc3nccc(-c4cccnc4)n3)c2)cc1 [ZG-10]; conditions: top dose 10 µM; top dose inferred
Procedure: as §1

Tubastatin A = compound: CN1CCc2c(c3ccccc3n2Cc2ccc(C(=O)NO)cc2)C1 [Tubastatin A]; conditions: top dose 20 µM
Procedure: as §1

Z-LLNle-CHO = compound: CCCC[C@@H](C=O)NC(=O)[C@H](CC(C)C)NC(=O)[C@H](CC(C)C)NC(=O)OCc1ccccc1 [Z-LLNle-CHO]; conditions: top dose 2.56 µM; top dose inferred
Procedure: as §1

IPA-3 = compound: Oc1ccc2ccccc2c1SSc1c(O)ccc2ccccc12 [IPA-3]; conditions: top dose 32 µM; top dose inferred
Procedure: as §1

XL-880 = compound: COc1cc2c(Oc3ccc(NC(=O)C4(C(=O)Nc5ccc(F)cc5)CC4)cc3F)ccnc2cc1OCCCN1CCOCC1 [XL-880]; conditions: top dose 5.12 µM; top dose inferred
Procedure: as §1

CI-1040 = compound: O=C(NOCC1CC1)c1ccc(F)c(F)c1Nc1ccc(I)cc1Cl [CI-1040]; conditions: top dose 10 µM; top dose inferred
Procedure: as §1

JW-7-52-1 = compound: CCC(=O)N1CCN(c2ccc(-n3c(=O)ccc4cnc5ccc(-c6cnc7ccccc7c6)cc5c43)cc2C(F)(F)F)CC1 [JW-7-52-1]; conditions: top dose 1.2 µM; top dose inferred
Procedure: as §1

Rapamycin = compound: CO[C@H]1C[C@@H]2CC[C@@H](C)[C@@](O)(O2)C(=O)C(=O)N2CCCC[C@H]2C(=O)O[C@H]([C@H](C)C[C@@H]2CC[C@@H](O)[C@H](OC)C2)CC(=O)[C@H](C)/C=C(\C)[C@@H](O)[C@@H](OC)C(=O)[C@H](C)C[C@H](C)/C=C/C=C/C=C/1C [Rapamycin]; conditions: top dose 0.1 µM; top dose inferred
Procedure: as §1

| Cell Line | AUC (Temozolomide) | IC50 (Temozolomide) [nM] | AUC (ZG-10) | IC50 (ZG-10) [nM] | AUC (Tubastatin A) | IC50 (Tubastatin A) [nM] | AUC (Z-LLNle-CHO) | IC50 (Z-LLNle-CHO) [nM] | AUC (IPA-3) | IC50 (IPA-3) [nM] | AUC (XL-880) | IC50 (XL-880) [nM] | AUC (CI-1040) | IC50 (CI-1040) [nM] | AUC (JW-7-52-1) | IC50 (JW-7-52-1) [nM] | AUC (Rapamycin) | IC50 (Rapamycin) [nM] |
| --- | --- | --- | --- | --- | --- | --- | --- | --- | --- | --- | --- | --- | --- | --- | --- | --- | --- | --- |
| DND-41 (T-cell leukaemia, suspension) | 0.985 | > 30000 | 0.625 | 1320 | 0.79 | 7780 | 0.719 | 612 | 0.627 | 4270 | 0.683 | 966 | 0.827 | 5170 | 0.598 | 135 | 0.872 | 76 |
| PL-21 (acute myeloid leukaemia, suspension) | 0.961 | > 30000 | 0.712 | 2780 | 0.866 | > 20000 | 0.832 | 2020 | 0.979 | > 32000 | 0.692 | 1220 | 0.475 | 528 | 0.523 | 87.4 | 0.719 | 29.3 |
| NCI-H1770 (non-small cell lung carcinoma, suspension) | 0.985 | > 30000 | 0.784 | 3690 | 0.966 | > 20000 | 0.884 | 2170 | 0.777 | 11200 | 0.628 | 686 | 0.99 | > 10000 | 0.887 | 1050 | 0.992 | > 100 |
| BE-13 (lymphoblastic leukaemia, suspension) | 0.983 | > 30000 | 0.4 | 338 | 0.756 | 6450 | 0.606 | 306 | 0.877 | 28600 | 0.409 | 184 | 0.819 | 5220 | 0.413 | 44.2 | 0.332 | 2.21 |
| TE-12 (oesophagus, suspension) | 0.98 | > 30000 | 0.689 | 2390 | 0.98 | > 20000 | 0.861 | > 2560 | 0.983 | > 32000 | 0.692 | 1250 | 0.756 | 4100 | 0.387 | 34.2 | 0.761 | 42.9 |
| KNS-42 (glioma, adherent) | 0.969 | > 30000 | 0.778 | 4860 | 0.906 | > 20000 | 0.766 | 1130 | 0.981 | > 32000 | 0.7 | 1310 | 0.944 | > 10000 | 0.477 | 64 | 0.756 | 40.2 |
| TGW (neuroblastoma, adherent) | 0.984 | > 30000 | 0.991 | > 10000 | 0.724 | 4840 | 0.89 | 2210 | 0.76 | 9830 | 0.524 | 368 | 0.865 | 6840 | 0.76 | 367 | 0.973 | > 100 |
| JJN-3 (haematopoietic neoplasm, suspension) | 0.985 | > 30000 | 0.733 | 2480 | 0.917 | > 20000 | 0.691 | 488 | 0.595 | 3470 | 0.819 | 2250 | 0.7 | 2020 | 0.579 | 118 | 0.788 | 35.5 |
| LS-123 (large intestine, adherent) | 0.974 | > 30000 | 0.741 | 3930 | 0.981 | > 20000 | 0.753 | 1120 | 0.753 | 14000 | 0.836 | > 5120 | 0.899 | > 10000 | 0.498 | 73.8 | 0.816 | 80.2 |
| LP-1 (myeloma, suspension) | 0.993 | > 30000 | 0.834 | 5030 | 0.888 | 15900 | 0.979 | > 2560 | 0.882 | 24000 | 0.828 | 2450 | 0.971 | > 10000 | 0.55 | 100 | 0.917 | > 100 |
| L-428 (Hodgkin lymphoma, suspension) | 0.992 | > 30000 | 0.887 | 8850 | 0.989 | > 20000 | 0.853 | 1630 | 0.863 | 22300 | 0.871 | 3850 | 0.973 | > 10000 | 0.565 | 110 | 0.851 | 63 |
| SH-4 (melanoma, adherent) | 0.913 | > 30000 | 0.717 | 3670 | 0.963 | > 20000 | 0.712 | 896 | 0.969 | > 32000 | 0.643 | 990 | 0.49 | 578 | 0.373 | 27.6 | 0.416 | 3.24 |
| MDST8 (large intestine, adherent) | 0.986 | > 30000 | 0.703 | 2320 | 0.983 | > 20000 | 0.947 | > 2560 | 0.903 | > 32000 | 0.677 | 992 | 0.576 | 1010 | 0.629 | 170 | 0.919 | > 100 |
| NCI-H847 (small cell lung carcinoma, adherent) | 0.992 | > 30000 | 0.658 | 1560 | 0.851 | 11100 | 0.837 | 1270 | 0.662 | 5100 | 0.422 | 204 | 0.983 | > 10000 | 0.794 | 439 | 0.959 | > 100 |
| NCI-H1436 (small cell lung carcinoma, suspension) | 0.984 | > 30000 | 0.574 | 1030 | 0.972 | > 20000 | 0.974 | > 2560 | 0.954 | > 32000 | 0.681 | 1110 | 0.974 | > 10000 | 0.962 | > 1200 | 0.959 | > 100 |
| VCaP (prostate, adherent) | 0.986 | > 30000 | 0.826 | 6390 | 0.895 | > 20000 | 0.852 | 2090 | 0.829 | 20900 | 0.736 | 1550 | 0.987 | > 10000 | 0.641 | 187 | 0.948 | > 100 |
| D-263MG (glioma, adherent) | 0.976 | > 30000 | 0.611 | 1350 | 0.973 | > 20000 | 0.836 | 2240 | 0.963 | > 32000 | 0.753 | 2040 | 0.76 | 4230 | 0.72 | 366 | 0.968 | > 100 |
| LB2241-RCC (kidney, adherent) | 0.982 | > 30000 | 0.664 | 1900 | 0.984 | > 20000 | 0.729 | 786 | 0.73 | 9890 | 0.844 | 4340 | 0.7 | 2460 | 0.982 | > 1200 | 0.972 | > 100 |
| WSU-DLCL2 (B-cell lymphoma, suspension) | 0.992 | > 30000 | 0.992 | > 10000 | 0.993 | > 20000 | 0.874 | 1790 | 0.893 | 26800 | 0.83 | 2500 | 0.924 | > 10000 | 0.866 | 781 | 0.985 | > 100 |
| ES-2 (ovary, adherent) | 0.982 | > 30000 | 0.928 | > 10000 | 0.95 | > 20000 | 0.821 | 1260 | 0.863 | 22400 | 0.645 | 765 | 0.828 | 5190 | 0.642 | 175 | 0.972 | > 100 |
| TUR (B-cell lymphoma, suspension) | 0.888 | 29500 | 0.525 | 726 | 0.852 | 13700 | 0.97 | > 2560 | 0.974 | > 32000 | 0.54 | 408 | 0.947 | > 10000 | 0.965 | > 1200 | 0.957 | > 100 |
| EVSA-T (breast, adherent) | 0.991 | > 30000 | 0.695 | 2010 | 0.919 | > 20000 | 0.789 | 958 | 0.982 | > 32000 | 0.798 | 2040 | 0.941 | > 10000 | 0.2 | 11.6 | 0.857 | 63.5 |
| NB(TU)1-10 (neuroblastoma, adherent) | 0.992 | > 30000 | 0.993 | > 10000 | 0.944 | > 20000 | 0.95 | > 2560 | 0.826 | 16000 | 0.4 | 177 | 0.868 | 7140 | 0.671 | 209 | 0.975 | > 100 |
| COLO-684 (endometrium, suspension) | 0.962 | > 30000 | 0.644 | 1640 | 0.933 | > 20000 | 0.837 | 2020 | 0.85 | 29000 | 0.698 | 1250 | 0.92 | > 10000 | 0.461 | 57.9 | 0.747 | 35.4 |
| RPMI-8866 (chronic myeloid leukaemia, suspension) | 0.923 | > 30000 | 0.584 | 1050 | 0.841 | 12500 | 0.792 | 1070 | 0.953 | > 32000 | 0.707 | 1170 | 0.566 | 936 | 0.968 | > 1200 | 0.988 | > 100 |
| SK-LMS-1 (soft tissue, adherent) | 0.926 | > 30000 | 0.638 | 1470 | 0.848 | 13800 | 0.775 | 963 | 0.71 | 7550 | 0.396 | 168 | 0.779 | 3860 | 0.252 | 15.2 | 0.349 | 2.44 |
| GAK (melanoma, adherent) | 0.985 | > 30000 | 0.789 | 4200 |  |  | 0.786 | 1050 | 0.97 | > 32000 | 0.764 | 1780 | 0.762 | 3400 | 0.4 | 40.4 | 0.889 | > 100 |
| A704 (kidney, adherent) | 0.988 | > 30000 | 0.785 | 4150 |  |  | 0.721 | 662 | 0.784 | 13200 | 0.608 | 625 | 0.927 | > 10000 | 0.481 | 66.7 | 0.917 | > 100 |
| LB647-SCLC (small cell lung carcinoma, semi-adherent) | 0.981 | > 30000 | 0.727 | 3020 | 0.966 | > 20000 | 0.73 | 792 | 0.714 | 8740 |  |  | 0.974 | > 10000 | 0.578 | 126 | 0.839 | 80.2 |
